Assay [1] deals with human ADRA2A receptor. In words: GRAB-NE2.1 in primary cultured rat cardiomyocytes, drug perfusion. Type of assay: cell-based. From the text:
The GRAB-NE2.1 sensor was transfected into primary cultured rat cardiomyocytes by liposomes, and the optical signal changes for the ligand binding and affinity for ligand were detected by drug perfusion.

Assay [2] concerns the target human ADRA2A receptor. The class given is cell-based. The settings on record: NE 1 nM to 1 mM, Boltzmann fit; read-out: EC50 for norepinephrine. Here is the method: The perfusion system was set on a microscope, and including a solution-introduced system, an imaging cell, and a suction pump. During the perfusion process, the imaging cell was placed above the objective lens of the inverted microscope, and the slide with cultured cells was placed in the cell. The perfusion experiments of different drugs were performed by controlling the switches of the different pipes of the solution-introduced system. The perfusion speed was set to one drop or so per second. In order to ensure the stability of the focal plane, the liquid level was kept constant at all times, and the flow rate of each solution was adjusted accordingly. The aspiration speed was adjusted to maintain the liquid level in the cell over the slide. […]
After the end of the program, the time-fluorescence intensity data sheet was exported. The background was subtracted from the ROI to get the corresponding fluorescence value Ft, and the average value of the fluorescence value before adding the drug was used as the starting fluorescence F0 to calculate […]
Fluorescence imaging data was processed using ImageJ software. For the fluorescence performance of GRAB sensors in HEK293T cells and neurons, the entire cell body was selected as the data processing region. The change in the fluorescence signal was usually indicated by its relative intensity change. […]

The subject of assay [3] is human ADRA2A receptor. The experiment in a line: GRAB-NE2.1 in cultured rat cortical neurons, drug perfusion. Type of assay: cell-based.
Assay [4] deals with G protein-coupled receptor (M3R, HRH1, OxtR, DRD2, B2AR, HTR4). The experiment in a line: GRAB sensors with fluorescent protein at the GPCR C-terminus, perfusion with receptor agonists in HEK293T cells. The class given is cell-based, human. An excerpt: Based on the previously constructed acetylcholine fluorescent sensor GRAB-ACh2.0, the portion of the polypeptide linkers and cpEGFP in the third intracellular loop was inserted after the position 580 of the C-terminus sequence of the human muscarinic acetylcholine receptor M3R protein, and Gq20 peptide segment and TS and ER export sequences were connected to the end of the M3R protein to obtain a fusion peptide acetylcholine sensor GRAB-ACh-Cter580 with a fluorescent protein fused at the C-terminus.
Next, the method of constructing a chimeric receptor was used to construct fusion polypeptide sensors with a fluorescent protein at the C-terminus of different G protein-coupled receptors. The three sites, K567, R568 and R569, at the C-terminus of GRAB-ACh-Cter580 were selected as the cutting sites and labeled as C1, C2 and C3, respectively. After cutting, the multiple C-terminus sequences containing fluorescent protein were fused to HRH1 (SEQ ID NO: 27), OxtR (SEQ ID NO: 29), DRD2, B2AR, and HTR4 (SEQ ID NO: 28) at specific positions, respectively. Changes in signal generated by these fusion polypeptides in perfusion experiments with corresponding receptor agonists were observed.

The source of these data is US20200400567A1, “FUSION POLYPEPTIDE” (PEKING UNIVERSITY, priority 2017, published 2020).

Where two headings read alike, the source gives them in different places.

B1: GRAB-NE2.1: GRAB-NE2.0 with peptide linker GG-TGAAA, SEQ ID NO: 23 (protein)
chain: METDTLLLWVLLLWVPGSTGDTSLYKKVGTTGGSLQPDAGNASWNGTEAPGGGARATPYSLQVTLTLVCLAGLLMLLTVFGNVLVIIAVFTSRALKAPQNLFLVSLASADILVATLVIPFSLANEVMGYWYFGKAWCEIYLALDVLFCTSSIVHLCAISLDRYWSITQAIEYNLKRTPRRIKAIIITVWVISAVISFPPLISIEKKGGGGGPQPAEPRCEINDQKWYVISSCIGSFFAPCLIMILVYVRIYQIAKRRTRVPPSRRGPDAVAAPPGGTERRPNGLGPERSAGPGGAEAEPLPTQLNGAPGEPAPAGPRDTDALDLEEGGNVYIKADKQKNGIKANFHIRHNIEDGGVQLAYHYQQNTPIGDGPVLLPDNHYLSVQSKLSKDPNEKRDHMVLLEFVTAAGITLGMDELYKGGTGGSMVRKGEELFTGVVPILVELDGDVNGHKFSVSGEGEGDATYGKLTLKFICTTGKLPVPWPTLVTTLTYGVQCFSRYPDHMKQHDFFKSAMPEGYIQERTIFFKDDGNYKTRAEVKFEGDTLVNRIELKGIDFKEDGNILGHKLEYNTGAAARWRGRQNREKRFTFVLAVVIGVFVVCWFPFFFTYTLTAVGCSVPRTLFKFFFWFGYCNSSLNPVIYTIFNHDFRRAFKKILCRGDRKRIVL
modifications: GRAB-NE2.1
Take B1: the fluorescence signal change entry in assay [1] (100 μM NE perfusion) was “greater than 300%”. The EC50 in assay [1] (NE 1 nM to 100 μM, read-out: affinity) is 500 nM; in assay [1] (different concentrations of norepinephrine, read-out: affinity for the ligand), around 500 nM; in assay [2] it was 900 nM; in assay [3] (neuronal cell body, NE 10 nM to 100 μM, read-out: ligand affinity), 790 nM. In addition, the “change in fluorescence signal on cell membrane and dendritic spines” value in assay [3] (100 μM NE perfusion, neurons) is “about 200%”. The “response of cell body” value in assay [3] (100 μM NE perfusion, neurons) is “about 60%”.

B2: GRAB-ACh-Cter580: M3R with linkers and cpEGFP inserted after position 580 of C-terminus, Gq20 and export sequences, SEQ ID NO: 17 (protein)
chain: METDTLLLWVLLLWVPGSTGDTSLYKKVGTTLHNNSTTSPLFPNISSSWIHSPSDAGLPPGTVTHFGSYNVSRAAGNFSSPDGTTDDPLGGHTVWQVVFIAFLTGILALVTIIGNILVIVSFKVNKQLKTVNNYFLLSLACADLIIGVISMNLFTTYIIMNRWALGNLACDLWLAIDYVASNASVMNLLVISFDRYFSITRPLTYRAKRTTKRAGVMIGLAWVISFVLWAPAILFWQYFVGKRTVPPGECFIQFLSEPTITFGTAIAAFYMPVTIMTILYWRVFQEAKRQLQKIDKSEGRFHVQNLSQVEQDGRTGHGLRRSSKFCLKEHKALKTLSAILLAFIITWTPYNIMVLVNTFCDSCIPKTFWNLGYWLCYINSTVNPVCYALCNKTFRTTFKMLLLCQCDKKKRRKQQYQQRQSVIGGNVYIKADKQKNGIKANFHIRHNIEDGGVQLAYHYQQNTPIGDGPVLLPDNHYLSVQSKLSKDPNEKRDHMVLLEFVTAAGITLGMDELYKGGTGGSMVRKGEELFTGVVPILVELDGDVNGHKFSVSGEGEGDATYGKLTLKFICTTGKLPVPWPTLVTTLTYGVQCFSRYPDHMKQHDFFKSAMPEGYIQERTIFFKDDGNYKTRAEVKFEGDTLVNRIELKGIDFKEDGNILGHKLEYNGGAAAFHKRAPEQALVFAAVKDTILQLNLKEYNLVKSRITSEGEYIPLDQIDINVNSFCYENEVALT
modifications: GRAB-ACh-Cter580
As to B2, in assay [4] (ACh (100 μM)), the ΔF/F0 fluorescence response was around 40%.

B3: GRAB-His-Cter580: GRAB-ACh-Cter580 C-terminus from C1 site inserted after 483 L of HRH1, SEQ ID NO: 19 (protein)
chain: METDTLLLWVLLLWVPGSTGDTSLYKKVGTSLPNSSCLLEDKMCEGNKTTMASPQLMPLVVVLSTICLVTVGLNLLVLYAVRSERKLHTVGNLYIVSLSVADLIVGAVVMPMNILYLLMSKWSLGRPLCLFWLSMDYVASTASIFSVFILCIDRYRSVQQPLRYLKYRTKTRASATILGAWFLSFLWVIPILGWNHFMQQTSVRREDKCETDFYDVTWFKVMTAIINFYLPTLLMLWFYAKIYKAVRQHCQHRELINRSLPSFSEIKLRPENPKGDAKKPGKESPWEVLKRKPKDAGGGSVLKSPSQTPKEMKSPVVFSQEDDREVDKLYCFPLDIEHMQAAAEGSSRDYVAVNRSHGQLKTDEQGLNTHGASEISEDQMLGDSQSFSRTDSDTTTETAPGKGKLRSGSNTGLDYIKFTWKRLRSHSRQYVSGLHMNRERKAAKQLGFIMAAFILCWIPYFIFFMVIAFCKNCCNEHLHMFTIWLGYINSTLNPLIYPLCNENFKKTFKRILKRRKQQYQQRQSVIGGNVYIKADKQKNGIKANFHIRHNIEDGGVQLAYHYQQNTPIGDGPVLLPDNHYLSVQSKLSKDPNEKRDHMVLLEFVTAAGITLGMDELYKGGTGGSMVRKGEELFTGVVPILVELDGDVNGHKFSVSGEGEGDATYGKLTLKFICTTGKLPVPWPTLVTTLTYGVQCFSRYPDHMKQHDFFKSAMPEGYIQERTIFFKDDGNYKTRAEVKFEGDTLVNRIELKGIDFKEDGNILGHKLEYNGGAAAFHKRAPEQALVFAAVKDTILQLNLKEYNLVKSRITSEGEYIPLDQIDINVNSFCYENEVALT
modifications: GRAB-His-Cter580
B3: the “change in fluorescence signal” value in assay [4] (1 mM Histamine) amounted to 20%.

B4: GRAB-Oxt-Cter580: GRAB-ACh-Cter580 C-terminus from C1 site inserted after 353 K of OxtR, SEQ ID NO: 21 (protein)
chain: METDTLLLWVLLLWVPGSTGDTSLYKKVGTEGALAANWSAEAANASAAPPGAEGNRTAGPPRRNEALARVEVAVLCLILLLALSGNACVLLALRTTRQKHSRLFFFMKHLSIADLVVAVFQVLPQLLWDITFRFYGPDLLCRLVKYLQVVGMFASTYLLLLMSLDRCLAICQPLRSLRRRTDRLAVLATWLGCLVASAPQVHIFSLREVADGVFDCWAVFIQPWGPKAYITWITLAVYIVPVIVLAACYGLISFKIWQNLRLKTAAAAAAEAPEGAAAGDGGRVALARVSSVKLISKAKIRTVKMTFIIVLAFIVCWTPFFFVQMWSVWDANAPKEASAFIIVMLLASLNSCCNPWIYMLFTGHLFHELVQRFLCCSASYLKKRRKQQYQQRQSVIGGNVYIKADKQKNGIKANFHIRHNIEDGGVQLAYHYQQNTPIGDGPVLLPDNHYLSVQSKLSKDPNEKRDHMVLLEFVTAAGITLGMDELYKGGTGGSMVRKGEELFTGVVPILVELDGDVNGHKFSVSGEGEGDATYGKLTLKFICTTGKLPVPWPTLVTTLTYGVQCFSRYPDHMKQHDFFKSAMPEGYIQERTIFFKDDGNYKTRAEVKFEGDTLVNRIELKGIDFKEDGNILGHKLEYNGGAAAFHKRAPEQALVFAAVKDTILQLNLKEYNLVKSRITSEGEYIPLDQIDINVNSFCYENEVALT
modifications: GRAB-Oxt-Cter580
In the case of B4, in assay [4] (1 μM Oxytocin), the “change in fluorescence signal” value came to 10%.

B5: GRAB-5HT-Cter580: GRAB-ACh-Cter580 C-terminus from C2 site inserted after 334Y of HTR4, SEQ ID NO: 20 (protein)
chain: METDTLLLWVLLLWVPGSTGDTSLYKKVGTDKLDANVSSNEGFRSVEKVVLLTFLAVVILMAILGNLLVMVAVCRDRQLRKIKTNYFIVSLAFADLLVSVLVMPFGAIELVQDIWAYGEMFCLVRTSLDVLLTTASIFHLCCISLDRYYAICCQPLVYRNKMTPLRIALMLGGCWVLPMFISFLPIMQGWNNIGIVDVIEKRKFSHNSNSTWCVFMVNKPYAITCSVVAFYIPFLLMVLAYYRIYVTAKEHAQQIQMLQRAGATSESRPQPADQHSTHRMRTETKAAKTLCVIMGCFCFCWAPFFVTNIVDPFIDYTVPEQVWTAFLWLGYINSGLNPFLYAFLNKSFRRAFLIILCCDDERYRKQQYQQRQSVIGGNVYIKADKQKNGIKANFHIRHNIEDGGVQLAYHYQQNTPIGDGPVLLPDNHYLSVQSKLSKDPNEKRDHMVLLEFVTAAGITLGMDELYKGGTGGSMVRKGEELFTGVVPILVELDGDVNGHKFSVSGEGEGDATYGKLTLKFICTTGKLPVPWPTLVTTLTYGVQCFSRYPDHMKQHDFFKSAMPEGYIQERTIFFKDDGNYKTRAEVKFEGDTLVNRIELKGIDFKEDGNILGHKLEYNGGAAAFHKRAPEQALVFAAVKDTILQLNLKEYNLVKSRITSEGEYIPLDQIDINVNSFCYENEVALT
modifications: GRAB-5HT-Cter580
On to B5, for which, in assay [4] (10 μM 5HT), the “change in fluorescence signal” value came to 10%.
